# Results are given in words; binding and its absence hold for the method and conditions named. In cells and extracts the contact can be indirect. Some results given as binding are weak or reduced against the parent protein; the word gives no strength.
# By UniProt entry, the sequences of proteins in these tests, tags left out. Where a name states a change or a piece, a line headed by the entry shows the natural chain unless it says otherwise. Chains listed by the source or under a name are the forms on record and can include a tag or linker. Residues count along the entry.
# UniProt Q9UDY8: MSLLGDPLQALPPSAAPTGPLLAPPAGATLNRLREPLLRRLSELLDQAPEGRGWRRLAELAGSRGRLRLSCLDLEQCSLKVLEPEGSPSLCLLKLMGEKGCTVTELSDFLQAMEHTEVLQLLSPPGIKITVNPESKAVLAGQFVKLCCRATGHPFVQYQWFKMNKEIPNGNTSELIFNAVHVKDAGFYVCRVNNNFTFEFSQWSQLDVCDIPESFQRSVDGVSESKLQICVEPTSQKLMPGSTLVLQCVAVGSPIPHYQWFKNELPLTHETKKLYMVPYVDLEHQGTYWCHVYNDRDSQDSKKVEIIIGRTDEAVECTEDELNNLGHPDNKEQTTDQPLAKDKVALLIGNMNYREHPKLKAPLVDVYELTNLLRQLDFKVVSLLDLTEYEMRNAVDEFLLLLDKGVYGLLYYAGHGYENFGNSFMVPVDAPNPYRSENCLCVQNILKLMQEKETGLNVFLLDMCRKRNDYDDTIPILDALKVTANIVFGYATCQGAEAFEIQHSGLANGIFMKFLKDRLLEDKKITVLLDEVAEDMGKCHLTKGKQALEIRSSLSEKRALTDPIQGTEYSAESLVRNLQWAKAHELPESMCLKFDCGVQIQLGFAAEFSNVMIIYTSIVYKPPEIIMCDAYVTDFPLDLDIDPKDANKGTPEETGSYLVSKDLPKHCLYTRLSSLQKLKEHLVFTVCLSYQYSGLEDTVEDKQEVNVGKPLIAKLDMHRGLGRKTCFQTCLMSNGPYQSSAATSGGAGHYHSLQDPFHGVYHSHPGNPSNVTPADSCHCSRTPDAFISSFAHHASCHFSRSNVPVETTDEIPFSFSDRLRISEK
# Avi-tagged MALT1 p76 fragment (bio-IP of Figure 4C): residues 150-824 of Q9UDY8
# Legend:
# [1] = biological target: Avi-tagged Ub-p76 (native MALT1 p76 released from an HA-ubiquitin fusion, C-terminal Avi-tag) (human) (UniProt Q9UDY8); test: pull-down; streptavidin pull-down (bio-IP) of Avi-tagged Ub-p76 expressed together with Flag-p76 or Flag-MALT1; blots with a-MALT1-C, a-Flag and a-TRAF6; NDLB lysis buffer, streptavidin Dynabeads 1 h at 4°C
# [2] = biological target: Avi-tagged MALT1 p76 fragment (bio-IP of Figure 4C) (human) (UniProt Q9UDY8); test: pull-down; streptavidin pull-down (bio-IP) of biotinylated Avi-tagged MALT1 constructs transiently expressed in 293T cells; lysis in NDLB (20 mM Tris-Cl pH 7.6, 110 mM NaCl, 2 mM EDTA, 0.3% NP-40, 10% glycerol); streptavidin Dynabeads 1 h at 4°C; blots for endogenous TRAF6 and BCL10
# [3] = biological target: Avi-tagged MALT1 (full length), expressed in 293T cells (human) (UniProt Q9UDY8); test: as above
# [4] = biological target: Avi-tagged wild-type MALT1, stably expressed in Jurkat T cells (human) (UniProt Q9UDY8); test: pull-down; streptavidin pull-down (bio-IP) from Jurkat T cells with stable expression of Avi-tagged MALT1 or its mutants; NDLB lysis buffer, streptavidin Dynabeads 1 h at 4°C; immunoblot
# [5] = biological target: Avi-tagged MALT1-RACA (R149A/C464A), stably expressed in Jurkat T cells (human) (UniProt Q9UDY8); test: as above
# [6] = biological target: Avi-tagged MALT1-C464A, stably expressed in Jurkat T cells (human) (UniProt Q9UDY8); test: as above
# [7] = biological target: Avi-tagged MALT1-R149A, stably expressed in Jurkat T cells (human) (UniProt Q9UDY8); test: as above
molecule,measurement,setting,value
"Avi-tagged Ub-p76 (native MALT1 p76 released from an HA-ubiquitin fusion, C-terminal Avi-tag) (from UniProt Q9UDY8-1 150-824) (domain or fragment)",binding,[1],binds
"Flag-tagged full-length MALT1, expressed in 293T cells (from UniProt Q9UDY8-1 1-824)",binding,[1],no binding
"endogenous BCL10 of 293T cells (protein, UniProt O95999 1-233) MEPTAPSLTEEDLTEVKKDALENLRVYLCEKIIAERHFDHLRAKKILSREDTEEISCRTSSRKRAGKLLDYLQENPKGLDTLVESIRREKTQNFLIQKITDEVLKLRNIKLEHLKGLKCSSCEPFPDGATNNLSRSNSDESNFSEKLRASTVMYHPEGESSTTPFFSTNSSLNLPVLEVGRTENTIFSSTTLPRPGDPGAPPLPPDLQLEEEGTCANSSEMFLPLRSRTVSRQ",binding,[2],no binding
same,binding,[3],binds
"BCL10 of Jurkat T cells (protein, UniProt O95999 1-233) MEPTAPSLTEEDLTEVKKDALENLRVYLCEKIIAERHFDHLRAKKILSREDTEEISCRTSSRKRAGKLLDYLQENPKGLDTLVESIRREKTQNFLIQKITDEVLKLRNIKLEHLKGLKCSSCEPFPDGATNNLSRSNSDESNFSEKLRASTVMYHPEGESSTTPFFSTNSSLNLPVLEVGRTENTIFSSTTLPRPGDPGAPPLPPDLQLEEEGTCANSSEMFLPLRSRTVSRQ",binding,[4],binds
same,binding,[5],binds
same,binding,[6],binds
same,binding,[7],binds

# From article PMC4126661
